Results: article PMC12820563
This is one part of the list. The list includes weakly bound sequences.

These sequences were tested against T1, MBP-FoxP3dN (UniProt Q99JB6) (assay: PD-seq (MBP pull-down with sequencing)). Conditions: 20 mM Tris-HCl pH 7.5, 100 mM NaCl, 1.5 mM MgCl2, 0.4 uM protein, 0.1 uM dsDNA library, 30 min, room temperature, amylose pull-down; high values mean tight binding; double strand, one strand shown.
T1 sequence: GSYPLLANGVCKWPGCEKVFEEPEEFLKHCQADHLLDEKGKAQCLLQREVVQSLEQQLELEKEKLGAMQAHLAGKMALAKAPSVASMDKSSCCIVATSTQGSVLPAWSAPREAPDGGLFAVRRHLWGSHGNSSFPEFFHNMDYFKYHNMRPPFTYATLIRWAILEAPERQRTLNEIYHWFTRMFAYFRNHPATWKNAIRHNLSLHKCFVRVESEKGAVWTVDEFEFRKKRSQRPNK

Sequence	binding signal (RPM ratio (pull-down/input))
GATGATTGTTCTCCCAGCTGATGAATTGAGTGTCTCGAGTAAACAAATTTTCCTAATCTTTCTGTTCAAGCGCCATCTAC	1.33
GATGATTGTTCTCCCAGCTGATGAATTTGCGCGATCGAGTAAACAAATTTTCCTAATCTTTCTGTTCAAGCGCCATCTAC	0.914
GATGATTGTTCTCCCAGCTGATGAATTCCATTGATCGAGTAAACAAATTTTCCTAATCTTTCTGTTCAAGCGCCATCTAC	0.643
GATGATTGTTCTCCCAGCTGATGAATTTCACCAGTCGAGTAAACAAATTTTCCTAATCTTTCTGTTCAAGCGCCATCTAC	0.198
GATGATTGTTCTCCCAGCTGATGAATTGTAGCAATCGAGTAAACAAATTTTCCTAATCTTTCTGTTCAAGCGCCATCTAC	2.57
GATGATTGTTCTCCCAGCTGATGAATTTTGTGCTTCGAGTAAACAAATTTTCCTAATCTTTCTGTTCAAGCGCCATCTAC	1.87
GATGATTGTTCTCCCAGCTGATGAATTAACACATTCGAGTAAACAAATTTTCCTAATCTTTCTGTTCAAGCGCCATCTAC	0.638
GATGATTGTTCTCCCAGCTGATGAATTGACTCTGTCGAGTAAACAAATTTTCCTAATCTTTCTGTTCAAGCGCCATCTAC	0.34
GATGATTGTTCTCCCAGCTGATGAATTGGTCGCCTCGAGTAAACAAATTTTCCTAATCTTTCTGTTCAAGCGCCATCTAC	0.604
GATGATTGTTCTCCCAGCTGATGAATTTCACGTATCGAGTAAACAAATTTTCCTAATCTTTCTGTTCAAGCGCCATCTAC	0.546
GATGATTGTTCTCCCAGCTGATGAATTTGCATAGTCGAGTAAACAAATTTTCCTAATCTTTCTGTTCAAGCGCCATCTAC	1.47
GATGATTGTTCTCCCAGCTGATGAATTGGGGTTGTCGAGTAAACAAATTTTCCTAATCTTTCTGTTCAAGCGCCATCTAC	0.893
GATGATTGTTCTCCCAGCTGATGAATTTGACCGATCGAGTAAACAAATTTTCCTAATCTTTCTGTTCAAGCGCCATCTAC	0.228
GATGATTGTTCTCCCAGCTGATGAATTGCATGCGTCGAGTAAACAAATTTTCCTAATCTTTCTGTTCAAGCGCCATCTAC	2.23
GATGATTGTTCTCCCAGCTGATGAATTCACGATTTCGAGTAAACAAATTTTCCTAATCTTTCTGTTCAAGCGCCATCTAC	0.327
GATGATTGTTCTCCCAGCTGATGAATTCAACCGGTCGAGTAAACAAATTTTCCTAATCTTTCTGTTCAAGCGCCATCTAC	0.231

Sequence	binding signal (RPM ratio (pull-down/input))
GATGATTGTTCTCCCAGCTGATGAATTTTCATCGTCGAGTAAACAAATTTTCCTAATCTTTCTGTTCAAGCGCCATCTAC	0.339
GATGATTGTTCTCCCAGCTGATGAATTCGTCGCATCGAGTAAACAAATTTTCCTAATCTTTCTGTTCAAGCGCCATCTAC	1.1
GATGATTGTTCTCCCAGCTGATGAATTCAAGGGTTCGAGTAAACAAATTTTCCTAATCTTTCTGTTCAAGCGCCATCTAC	0.277
GATGATTGTTCTCCCAGCTGATGAATTATAAAACTCGAGTAAACAAATTTTCCTAATCTTTCTGTTCAAGCGCCATCTAC	0.254
GATGATTGTTCTCCCAGCTGATGAATTGACCCCGTCGAGTAAACAAATTTTCCTAATCTTTCTGTTCAAGCGCCATCTAC	0.239
GATGATTGTTCTCCCAGCTGATGAATTGTTGCTCTCGAGTAAACAAATTTTCCTAATCTTTCTGTTCAAGCGCCATCTAC	2.37
GATGATTGTTCTCCCAGCTGATGAATTTTTCTTATCGAGTAAACAAATTTTCCTAATCTTTCTGTTCAAGCGCCATCTAC	0.3
GATGATTGTTCTCCCAGCTGATGAATTGCCACACTCGAGTAAACAAATTTTCCTAATCTTTCTGTTCAAGCGCCATCTAC	1.52
GATGATTGTTCTCCCAGCTGATGAATTGTGCAAGTCGAGTAAACAAATTTTCCTAATCTTTCTGTTCAAGCGCCATCTAC	3.75
GATGATTGTTCTCCCAGCTGATGAATTAATTTTCTCGAGTAAACAAATTTTCCTAATCTTTCTGTTCAAGCGCCATCTAC	1.65
GATGATTGTTCTCCCAGCTGATGAATTGCAGTGATCGAGTAAACAAATTTTCCTAATCTTTCTGTTCAAGCGCCATCTAC	0.899
GATGATTGTTCTCCCAGCTGATGAATTTATCTATTCGAGTAAACAAATTTTCCTAATCTTTCTGTTCAAGCGCCATCTAC	1.23
GATGATTGTTCTCCCAGCTGATGAATTTCAGCGTTCGAGTAAACAAATTTTCCTAATCTTTCTGTTCAAGCGCCATCTAC	1.12
GATGATTGTTCTCCCAGCTGATGAATTCCTACCATCGAGTAAACAAATTTTCCTAATCTTTCTGTTCAAGCGCCATCTAC	0.308
GATGATTGTTCTCCCAGCTGATGAATTCTCGATGTCGAGTAAACAAATTTTCCTAATCTTTCTGTTCAAGCGCCATCTAC	0.372
